Laboratory results published in PMC4336329 (PLoS ONE, 2015).
About 2,200 (0.71%) of roughly 310,000 compounds showed an effect of 50% or more. Effects have a minus sign here. This is one part of the list.

Target: human ether-à-go-go-related gene (hERG) potassium channel (human, UniProt Q12809)
Assay: primary screen, population patch clamp on CHO cells stably expressing hERG

Sequence of human ether-à-go-go-related gene (hERG) potassium channel (Q12809 whole entry, looked up): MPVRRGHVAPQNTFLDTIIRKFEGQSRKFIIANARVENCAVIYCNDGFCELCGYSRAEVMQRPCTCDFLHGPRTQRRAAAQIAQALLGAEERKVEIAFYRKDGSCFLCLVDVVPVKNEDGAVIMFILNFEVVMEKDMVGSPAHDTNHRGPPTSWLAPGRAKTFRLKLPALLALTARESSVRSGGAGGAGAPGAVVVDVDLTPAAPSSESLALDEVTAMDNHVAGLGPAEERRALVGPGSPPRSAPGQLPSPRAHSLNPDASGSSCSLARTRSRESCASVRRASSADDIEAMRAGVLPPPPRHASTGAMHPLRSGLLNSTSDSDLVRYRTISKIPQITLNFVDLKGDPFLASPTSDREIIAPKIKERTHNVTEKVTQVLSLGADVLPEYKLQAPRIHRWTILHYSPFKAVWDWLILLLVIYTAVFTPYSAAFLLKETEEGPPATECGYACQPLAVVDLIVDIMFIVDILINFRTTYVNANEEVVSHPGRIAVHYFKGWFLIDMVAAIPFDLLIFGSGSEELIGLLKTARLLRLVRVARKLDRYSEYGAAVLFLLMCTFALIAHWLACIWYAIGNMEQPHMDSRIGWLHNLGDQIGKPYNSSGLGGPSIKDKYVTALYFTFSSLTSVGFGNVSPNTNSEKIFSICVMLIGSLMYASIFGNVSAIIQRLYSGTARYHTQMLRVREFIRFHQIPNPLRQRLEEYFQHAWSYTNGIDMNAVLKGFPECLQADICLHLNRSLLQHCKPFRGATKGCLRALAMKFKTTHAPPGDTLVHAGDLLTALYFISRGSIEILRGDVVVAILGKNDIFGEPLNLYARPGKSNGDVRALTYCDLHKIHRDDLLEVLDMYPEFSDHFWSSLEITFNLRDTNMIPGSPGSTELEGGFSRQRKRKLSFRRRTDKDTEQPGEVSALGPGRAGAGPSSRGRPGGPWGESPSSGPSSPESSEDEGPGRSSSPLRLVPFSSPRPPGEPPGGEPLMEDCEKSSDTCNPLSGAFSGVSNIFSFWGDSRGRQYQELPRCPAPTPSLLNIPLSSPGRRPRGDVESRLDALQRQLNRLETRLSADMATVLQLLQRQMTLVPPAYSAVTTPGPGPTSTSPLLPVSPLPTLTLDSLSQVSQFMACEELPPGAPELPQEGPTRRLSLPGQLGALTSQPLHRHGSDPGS

| Compound | hERG current change (%, negative = inhibition) at 1uM [%] |
| --- | --- |
| COc1cc(CNc2cccc3[nH]c(C(F)(F)F)nc23)cc(OC)c1.Cl | 10.2 |
| OCC[C@H]1C[C@H](O)[C@@H](O)[C@@]2(Cc3ccccc3CCO2)O1 | 6.12 |
| Fc1ccc(OCc2nn3c(Cn4nnc5ccccc54)nnc3s2)cc1 | 8.94 |
| O=C(O)CN1C(=O)/C(=C\c2cccc(OCc3ccccc3F)c2)SC1=S | 10.4 |
| Cc1ccc(CN(Cc2ccccc2)C(=S)Nc2ccccc2C)o1 | 6 |
| O=C(CNC(=S)N(Cc1ccccc1)Cc1cccnc1)NC1CCCC1 | 11 |
| CN(CC(=O)Nc1cccc(F)c1)C(=O)C1CC(=O)N(CCc2ccccc2)C1 (stereo not shown) | 11.3 |
| COc1ccccc1-c1noc(CCC(=O)Nc2cccc(C(F)(F)F)c2)n1 | 0.451 |
| O=C(NCc1n[nH]c(=S)n1-c1cccc(Cl)c1)c1cccs1 | 9.04 |
| CS(=O)(=O)N(Cc1ccc(Cl)cc1)c1ccc(C(=O)NCCSc2ccccn2)cc1 | -0.841 |
| COc1ccc2nc(N3CCC(O)CC3)c(C#N)cc2c1 | 11.2 |
| CC(=O)Oc1ccccc1N(C(C)=O)S(=O)(=O)c1cccc([N+](=O)[O-])c1 | 15.4 |
| CN1CCN(C(=O)C2=C[C@@H](c3ccc(C(F)(F)F)cc3)C[C@@H](OCc3ccc(CO)cc3)O2)CC1 | 1.47 |
| N/N=C(/Cc1nc2ccccc2[nH]1)c1ccc([N+](=O)[O-])cc1 | -7.88 |
| COCc1[nH][nH]c(=O)c1C=Nc1ccccc1 | 13.4 |
| CCOc1ccc(N2CC(C(=O)Nc3cccnc3)CC2=O)cc1 (stereo not shown) | 1.94 |
| CCCCCn1c(CNC(C)=O)nc2ccccc21 | 6.45 |
| CS(=O)(=O)Nc1ccccc1C(=O)NCCSc1ccc(Cl)cc1 | 14.4 |
| O=C(NC1CCN(Cc2ccc(Cl)c(Cl)c2)CC1)c1ccccc1 | 10.8 |
| Br.Cc1nc(C)c(-c2csc(Nc3ccc(N)cc3)n2)s1 | 11.4 |
| CCC1CCCCN1CCCNC(=O)CCCOc1cc(=O)n(C)c2ccccc12 (stereo not shown) | 2.23 |
| N#Cc1c2n(c3c(=O)n(Cc4ccccc4)cnc13)CCCC2 | -8.46 |
| CCOc1ccc(-n2c(Cc3cc(=O)[nH]c(=O)[nH]3)nnc2SCC)cc1 | -5.41 |
| CN(Cc1ccccc1)c1cc(Cl)nc(N)n1 | 4.94 |
| O=C(CSc1nnc(-c2ccco2)n1Cc1ccco1)NCc1cccs1 | -13.3 |
